Measured values published in PubChem BioAssay AID887 (National Center for Advancing Translational Sciences (NCATS), 2007).
Out of some 74,000 compounds screened, about 1,100 (1.5%) were called active. The shares of active, inactive and inconclusive entries below differ from those in the screen. The call rests on the fitted dose curve; in most records, active means well fitted inhibition curve with a large enough effect; inconclusive means small, poorly fitted or top-dose-only effect; inactive means no such curve, though single readings can be large or run the other way. Potencies of inconclusive entries are left out as doubtful fits.
Further: nearly all actives have a fitted effect of over 55% in size.
On the % scale 0 is the no-effect control and ±100 the full control effect; potency means the concentration at half of the fitted maximal effect; tags describe the fitted curve by direction and shape.

What follows are compounds tested against Polyunsaturated fatty acid lipoxygenase ALOX15 (Homo sapiens) (UniProt P16050) (assay: qHTS Assay for Inhibitors of 15-hLO (15-human lipoxygenase)). Conditions: purified 15hLO-1, xylenol orange hydroperoxide absorbance; activity change, negative = inhibition: at 57.1 µM (top of the series) unless noted.
Chain of UniProt P16050 (P16050 whole entry, looked up): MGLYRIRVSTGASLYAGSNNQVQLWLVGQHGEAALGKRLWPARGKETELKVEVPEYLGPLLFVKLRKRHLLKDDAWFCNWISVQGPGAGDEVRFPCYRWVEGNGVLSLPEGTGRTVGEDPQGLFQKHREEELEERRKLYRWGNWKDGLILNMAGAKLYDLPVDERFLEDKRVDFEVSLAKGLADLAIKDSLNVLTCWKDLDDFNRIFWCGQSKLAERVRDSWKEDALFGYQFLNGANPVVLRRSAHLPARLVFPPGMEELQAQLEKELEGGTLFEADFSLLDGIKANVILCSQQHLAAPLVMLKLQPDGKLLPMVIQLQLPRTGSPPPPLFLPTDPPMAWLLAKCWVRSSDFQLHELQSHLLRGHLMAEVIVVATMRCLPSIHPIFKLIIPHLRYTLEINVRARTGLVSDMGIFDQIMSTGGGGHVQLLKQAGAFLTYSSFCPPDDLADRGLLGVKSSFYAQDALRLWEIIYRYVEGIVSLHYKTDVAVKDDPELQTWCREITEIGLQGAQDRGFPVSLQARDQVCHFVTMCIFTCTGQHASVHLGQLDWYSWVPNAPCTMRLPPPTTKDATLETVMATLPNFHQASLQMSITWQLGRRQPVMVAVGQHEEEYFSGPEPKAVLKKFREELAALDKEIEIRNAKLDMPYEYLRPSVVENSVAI
Outline: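 40 nM 15hLO-1 + cpd, 15 min RT; start w/ 50 uM AA (final), 6 min RT; stop/detect w/ 200 uM XO + 300 uM Fe(II) in 50 mM H2SO4, 30 min; A573/A405. Buffer 25 mM Hepes pH 7.5, 0.01% Triton X-100. No-enzyme wells as negative control.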
`CN(C)c1ccc(-c2cc(Nc3ccc(F)cc3)ncn2)cc1` was tested, and the Potency was inconclusive [inhibitor, partial curve].
`Cn1c(=O)c(-c2ccc(F)c(F)c2)nc2cncnc21` was tested, and the “activity change, negative = inhibition” value was inactive: -2.53%.
For `O=C(COC(=O)c1cnccn1)c1ccc(Br)cc1`, the “activity change, negative = inhibition” value was inactive: 0.801%.
In the case of `Nc1ccc(-c2n[nH]c(=O)c3ccccc23)cc1N`, the Potency is reported as inconclusive [inhibitor, partial curve].
In the case of `CCC(C)NC(=O)c1cn(C)c(=O)c2cc(OC)c(OC)cc12` (stereo unspecified), the “activity change, negative = inhibition” value is reported as inactive: 10.6%.
With `O=C(CN1C(=O)CCSc2ccccc21)Nc1ccc2c(c1)OCCO2` the “activity change, negative = inhibition” value was inactive: -0.502%.
`CCCC(=O)N(c1ccc2oc(=O)sc2c1)S(=O)(=O)c1cccs1` was tested, and the Potency was active: 15.8 µM.
`CC1CCc2c(sc3ncn4c(SCC(=O)NCc5ccco5)nnc4c23)C1` (stereo unspecified) was tested, and the “activity change, negative = inhibition” value was inactive: -14.8%.
For `N/N=C1/CC(=O)NC(=O)N1`, the activity change, negative = inhibition was inactive: 5.36% [at 11.4 µM].
In the case of `CC(C)OC(=O)CCCN1C(=O)c2ccc(N)cc2C1=O`, the Potency is reported as inconclusive [inhibitor, single point].
With `CSc1ccccc1NC(=O)c1c(C)noc1C` the Potency was inconclusive [inhibitor, single point].
`CCc1nn(CC(=O)O)c(=O)c2ccccc12` was tested, and the Potency was inconclusive [inhibitor, single point].
For `N#Cc1c(-c2ccccc2)cc(-c2ccco2)c(C#N)c1N`, the Potency was active: 7.94 µM.
For `O=C(CSc1nnc(CNC(=O)c2ccccc2F)o1)c1ccc(Cl)cc1`, the “activity change, negative = inhibition” value was inactive: -7.01%.
With `COc1ccc(CC(=O)OCC(=O)NC(=O)NC2CCCCC2)cc1` the “activity change, negative = inhibition” value was inactive: -14.2%.
In the case of `O=C(CSc1nnc(-c2cccs2)o1)N1CCCc2ccccc21`, the “activity change, negative = inhibition” value is reported as inactive: -0.0248%.
In the case of `CC(=O)C1=C(C)NC(SCSc2ccccc2)=C(C#N)C1c1cccnc1` (stereo unspecified), the Potency is reported as active: 0.316 µM.
For `Cn1c(-c2ccco2)nc2cc3ccccc3cc21`, the Potency was inconclusive [inhibitor, single point].
`Cc1ccc2nc(N3CCN(C(=O)c4cccs4)CC3)c(C#N)cc2c1` was tested, and the Potency was inconclusive [inhibitor, single point].
With `O=c1c2c3nc4ccccc4nc3n(/N=C/c3cccs3)c2ncn1-c1ccccc1` the “activity change, negative = inhibition” value was inactive: -7.63%.
For `O=c1oc2ccccc2n1CSc1nc2ccccc2s1`, the Potency was inconclusive [inhibitor, partial curve].
For `COc1cccc(CCc2ccccc2OCC[C@@H]2C[C@@H](O)CN2C)c1`, the Potency was active: 20 µM.
For `O=C(O)c1ccccc1C(=O)Nc1n[nH]c(=S)s1`, the Potency was inconclusive [inhibitor, full curve].
With `Cn1c(C[C@@H](O)c2nc3ccccc3n2C)nc2ccccc21` the activity change, negative = inhibition was inactive: 10.5% [at 11.4 µM].
With `COCCNc1cc(-c2ccccc2C(F)(F)F)ncn1` the Potency was inconclusive [inhibitor, partial curve].
`CCn1c(N2CCN(S(=O)(=O)c3ccccc3C(F)(F)F)CC2)nc2ccccc21` was tested, and the Potency was inconclusive [inhibitor, single point].
`COc1ccccc1NC(=O)CSc1ccc2nnc(-c3ccncc3)n2n1` was tested, and the Potency was inconclusive [inhibitor, partial curve].
For `C/C=C/Cn1c(SCc2ccc(Cl)cc2)nc2c1c(=O)[nH]c(=O)n2C`, the Potency was inconclusive [inhibitor, partial curve].
`CCC1(CC)NC(=O)N(CC(=O)Nc2sc3c(c2C(N)=O)CCC3)C1=O` was tested, and the Potency was inconclusive [inhibitor, partial curve].
`COC(=O)CN(c1ccccc1C)S(C)(=O)=O` was tested, and the Potency was inconclusive [inhibitor, single point].
With `COc1ncc2nc(-c3ccccc3)c(=O)n(C[C@H]3CCCO3)c2n1` the “activity change, negative = inhibition” value was inactive: -3.73%.
In the case of `COc1ccc(C2CC(=O)N3CN(c4ccc(C)c(Cl)c4)CSC3=C2C#N)cc1OC` (stereo unspecified), the Potency is reported as active: 3.16 µM.
With `O=C(O)CCc1c2ccc(=O)c(O)c-2oc2c(O)c(O)ccc12` the Potency was active: 3.16 µM.
For `CCCCC(c1nnnn1C1CCCC1)N1CCN(C2CCCC2)CC1` (stereo unspecified), the “activity change, negative = inhibition” value was inactive: 9.43%.
`N=C(N)SC(c1ccccc1)c1ccccc1` was tested, and the activity change, negative = inhibition was inactive: 5.48% [at 11.4 µM].
`O=C(c1ccc(N2CCCCS2(=O)=O)cc1)N1CCN(c2ccc(N3CCOCC3)nn2)CC1` was tested, and the “activity change, negative = inhibition” value was inactive: 3.93%.
For `N[C@@H](Cc1c[nH]c2ccc(O)cc12)C(=O)O`, the Potency was inconclusive [inhibitor, partial curve].
`CN(C)c1ncc2nc(-c3ccccc3)c(=O)n(CCc3ccccc3)c2n1` was tested, and the Potency was inconclusive [inhibitor, partial curve].
With `CCOC(=O)COc1ccc(S(=O)(=O)NCCC2=CCCCC2)cc1` the Potency was inconclusive [inhibitor, single point].
For `COc1ccc(N2CCN(C(=O)CSc3nnc(-c4cc5ccccc5cc4O)n3C)CC2)cc1`, the Potency was inconclusive [inhibitor, single point].
For `COc1ccc(NC(=O)N2CC3(CCN(C(=O)c4cnccn4)CC3)C2)cc1`, the “activity change, negative = inhibition” value was inactive: 1.29%.
`O=c1oc2c3c4c(cc2s1)CCCN4CCC3` was tested, and the Potency was inconclusive [inhibitor, partial curve].
With `COc1cccc(OC)c1C(=O)N1CCN(Cc2ccccc2C(F)(F)F)CC1` the Potency was inconclusive [inhibitor, single point].
For `Cc1ccc(C)c(-n2nnnc2SCC(=O)NCCC2=CCCCC2)c1`, the Potency was inconclusive [inhibitor, partial curve].
For `N#CC1=C(N)Oc2n[nH]c(-c3cccs3)c2C1c1ccoc1` (stereo unspecified), the Potency was active: 10 µM.
`O=[N+]([O-])c1ccc(S(=O)(=O)Cc2ccccc2)c2nonc12` was tested, and the Potency was inconclusive [inhibitor, partial curve].
In the case of `Cc1c(=O)n(OCc2ccccc2)c2ccccc2[n+]1[O-]`, the activity change, negative = inhibition is reported as inactive: 6.81% [at 11.4 µM].
For `Cn1cccc1Cc1nnc(SCC(=O)NC2CCCCC2)n1CCc1ccccc1`, the Potency was inconclusive [inhibitor, single point].
With `COc1ccc(Cl)cc1C(=O)N(Cc1nc(-c2cccc(C)c2)no1)C(C)C` the Potency was inconclusive [inhibitor, partial curve].
`Oc1ccc(C=NCC2COc3ccccc3O2)cc1` (stereo unspecified) was tested, and the Potency was inconclusive [inhibitor, single point].
For `COC(=O)c1ccc2c(=O)n(C3CCCCC3)c(SCC#N)nc2c1`, the Potency was inconclusive [inhibitor, single point].
In the case of `O=C(Nc1ccon1)c1cc2c(s1)CCCCCC2`, the Potency is reported as inconclusive [inhibitor, partial curve].
In the case of `O=C(c1ccco1)N1CCC[C@@]2(CCN(c3ccccc3)C2)C1`, the Potency is reported as inconclusive [inhibitor, single point].
In the case of `N#Cc1nc(Cc2cccc3ccccc23)oc1NCc1ccco1`, the Potency is reported as inconclusive [inhibitor, partial curve].
In the case of `CCOC(=O)CCP(=O)(O)C(O)c1ccc(OC)cc1` (stereo unspecified), the Potency is reported as inconclusive [inhibitor, single point].
With `COc1ccc(C2C=C(c3ccc(C)c(C)c3)Nc3ncnn32)c(OC)c1OC` (stereo unspecified) the Potency was inconclusive [inhibitor, single point].
In the case of `CCN(CC)c1nc2ccccc2n2cnnc12`, the Potency is reported as inconclusive [inhibitor, partial curve].
For `CCC(SC1=Nc2ccccc2C2=NC(CC(C)C)C(=O)N12)C(=O)Nc1ccc2c(c1)OCO2` (stereo unspecified), the Potency was inconclusive [inhibitor, single point].
With `O=c1c(-c2ccccc2)nc2cncnc2n1C1CC1` the Potency was inconclusive [inhibitor, single point].
With `COc1ccccc1NS(=O)(=O)c1cc(C(=O)O)ccc1F` the “activity change, negative = inhibition” value was inactive: -2.03%.
For `Cc1ccc(NC(=O)c2cccc(OCc3c(C)noc3C)c2)c(C)c1`, the Potency was inconclusive [inhibitor, partial curve, poor fit].
`Cc1ccccc1C(=O)Nc1ccc2nc3n(c(=O)c2c1)CCC3` was tested, and the “activity change, negative = inhibition” value was inactive: 4.94%.
In the case of `CN[C@H]1[C@H](O)[C@@H](O[C@@H]2[C@H](O)[C@@H](O[C@H]3OC(CN)=CC[C@H]3N)[C@@H](N)C[C@H]2N)OC[C@@]1(C)O`, the “activity change, negative = inhibition” value is reported as inactive: 14.2% [at 25.6 µM].
For `COc1ccc(NC2=NCCC(=O)N2Cc2cccs2)cc1`, the “activity change, negative = inhibition” value was inactive: -1.47%.
For `N#Cc1c(N)sc2c1CCN(C(=O)OCc1ccccc1)C2`, the Potency was active: 15.8 µM.
`Cc1cccc(OCc2n[nH]c(=S)o2)c1` was tested, and the Potency was inconclusive [inhibitor, full curve, poor fit].
`O=S(=O)(c1ccccc1)c1ccc(NCc2ccco2)cc1` was tested, and the Potency was inconclusive [inhibitor, partial curve].
In the case of `CCNc1ncc2nc(-c3cccs3)c(=O)n(CCC#N)c2n1`, the “activity change, negative = inhibition” value is reported as inactive: -26.1%.
For `N#Cc1ccc(C(c2nnnn2CCc2ccccc2)N2CCCCCC2)cc1` (stereo unspecified), the Potency was inconclusive [inhibitor, partial curve].
For `CCOC(=O)c1ccc(N2C(=O)c3n[nH]c(C)c3C2c2ccccc2)cc1` (stereo unspecified), the “activity change, negative = inhibition” value was inactive: -27.6%.
With `COCCSc1ccccc1C(=O)Nc1cc(C)on1` the Potency was inconclusive [inhibitor, full curve].
In the case of `c1cnc2c(SCc3ccc(-c4nnco4)cc3)cccc2c1`, the “activity change, negative = inhibition” value is reported as inactive: 0.471%.
`COc1ccc(N(CC(=O)O)N=O)cc1` was tested, and the activity change, negative = inhibition was inactive: -8.94% [at 11.4 µM].
With `O=C(COC(=O)c1cncc(Br)c1)NCCC1=CCCCC1` the Potency was inconclusive [inhibitor, single point].
For `Cn1cnnc1SCC(=O)c1cc2ccccc2oc1=O`, the Potency was inconclusive [inhibitor, single point].
In the case of `COCn1c(COc2ccccc2)nc2ccccc21`, the activity change, negative = inhibition is reported as inactive: -9.11% [at 11.4 µM].
